# PubChem BioAssay AID743279 (National Center for Advancing Translational Sciences (NCATS), 2014)
# The campaign covered roughly 360,000 compounds. About 17,000 (4.7%) were called active. The inconclusive results got no clear call from the source; some entries with a clear call stand among them for comparison. Cut-off read from the data, not from the text of the source: active = activity change below about -50%; inconclusive = mostly about -30% to -49%; inactive = weaker than that.
# Experiment: qHTS for Inhibitors of Inflammasome Signaling: IL-1-beta AlphaLISA Primary Screen
# Details: THP-1 LPS/ATP IL-1B secretion, 16 h; at 57.5 µM, hits give low values
# Method in brief: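 THP-1 cells pretreated 1 hr with compounds (up to 57.5 uM final), then stimulated with LPS (250 ng/mL final) plus ATP (1.25 mM final); secreted IL-1B measured by AlphaLISA after 16 hr, decreased signal indicating inhibition.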
# % is set by controls: 0 for no effect and ±100 for the full control effect.
row,SMILES,activity change
1,Cc1ccc(Cn2c(C)c(C(=O)NCc3ccc(Cl)c(Cl)c3)sc2=O)cc1,inconclusive: -45.6%
2,COc1ccc(Cl)cc1NC(=O)CN(C)C(=O)c1ccc(-n2nc(C)cc2C)cc1,inactive: -26.1%
3,CCCc1[nH]nc2c1C(C1CC=CCC1)C(C#N)=C(N)O2 (stereo not given),inconclusive: -33.4%
4,CC12CCC(=O)C=C1CCC1C2C(O)CC2(C)C1CCC21OCC1=O (stereo not given),inconclusive: -31.7%
5,Clc1ccc(Cc2noc(CN3CCN(c4ccccc4)CC3)n2)c(Cl)c1,inconclusive: -31.8%
6,COc1ccc(C(C)=NNS(=O)(=O)c2ccc(C)cc2)cc1OC,inconclusive: -41.9%
7,C=C1C(=O)OC2C1CCC(C)=C1C(=O)C3OC3(C)C12 (stereo not given),active: -104%
8,CCOc1ccc(Oc2nc(Nc3ccc(C)cc3)nc(N(C)C)n2)nn1,inconclusive: -33.2%
9,O=C(c1nn2c(C(F)(F)F)cc(-c3ccccc3)nc2c1Cl)N1CCOCC1,inconclusive: -45.2%
10,COc1ccc(F)cc1C(=O)C1CCCN(Cc2c[nH]c3ccccc23)C1 (stereo not given),inconclusive: -48.2%
11,Cc1ccc(Nc2nc(N)nc(CSC(=S)N3CCOCC3)n2)c(C)c1,inconclusive: -31.6%
12,CCCN(CCC)CCNC(=O)c1cc2c(C)nc3ccccc3c2o1,inconclusive: -34.1%
13,COc1ccc(-c2cc(C(=O)NCC3CCCO3)c3cc(C(C)C)ccc3n2)cc1 (stereo not given),inconclusive: -47.9%
14,O=C(Nc1ccc(Br)cc1)C1C2C=CC3(O2)C1C(=O)N(CCN1CCCCC1)C3C(=O)NC1CCCCC1 (stereo not given),inconclusive: -33.8%
15,CCOc1cc(/C=C2\CN(CC)C/C(=C\c3ccc(O)c(OCC)c3)C2=O)ccc1O,active: -104%
16,COc1cccc(NC(=O)CN2C(=O)COc3ccc(S(=O)(=O)N4CCC(C)CC4)cc32)c1,inconclusive: -32.9%
17,CC1(C)Cc2nc3oc4c(NCc5ccccc5)ncnc4c3cc2CO1,inactive: 69.4%
18,O=C(COc1ccc(Cl)cc1)Nc1ccc(N2CCN(C(=O)c3ccco3)CC2)cc1,inconclusive: -45.1%
19,COc1ccccc1N(C)S(=O)(=O)c1ccc(C)c(C(=O)NCc2ccccn2)c1,inactive: -16.5%
20,O=C(COC(=O)CNC(=O)c1ccccc1)Nc1ccc(S(=O)(=O)N2CCOCC2)cc1,inactive: 10.5%
21,C[C@H]1CN=C(Nc2ccccc2)N1CCCC1CCCCC1,inconclusive: -30.6%
22,C#CCN1N=C(c2ccc(C)cc2)CSC1=O,inconclusive: -33.7%
23,CCN1C(=O)/C(=C\N2CCOCC2)SC1=S,inconclusive: -33.9%
24,O=C(Nc1nc2c(Br)cccc2s1)C1CC1,inconclusive: -39.9%
25,CC(C)C1OC(c2cccc(NC(=O)c3cccs3)c2)OCC1(C)C (stereo not given),active: -74.5%
26,Cc1ccc(S(=O)(=O)/N=C2\C=C(Nc3cccc(C(=O)O)c3)C(=O)c3ccccc32)cc1,active: -93.4%
27,Cc1ccc(-c2nn(-c3ccccc3)cc2CN(Cc2ccccc2)C(=O)c2ccco2)o1,inconclusive: -44.1%
28,CC(=O)Oc1c(-c2ccco2)oc2ccccc2c1=O,active: -81.9%

row,SMILES,activity change
1,CC1=CC(c2ccc(Cl)cc2)n2nc(NC(=O)CCC(=O)O)nc2N1 (stereo not given),inactive: 19.6%
2,CCN1CCN(c2cc(SC(C)C)nc(-c3ccc(OC)cc3)n2)CC1,active: -81.6%
3,COc1ccc(OCCN(C)Cc2ccccc2)cc1,inactive: -9.65%
4,CC(C)c1c(O)ccc2c1CC[C@H]1C(C)(C)CCC[C@]21C,inconclusive: -34.5%
5,Nc1nc(CCl)nc(Nc2ccc3ccccc3c2)n1,active: -98.9%
6,COc1ccc(/C=N/N=C/c2ccc(OC)c(OC)c2)cc1OC,inactive: 12.8%
7,COCCNc1oc(/C=C/c2ccc(F)cc2)nc1S(=O)(=O)c1ccccc1,inconclusive: -47.6%
8,CCc1nn(CC(=O)NCCCN2CCOCC2)c(=O)c2cc3c(OC)cccc3n12,inconclusive: -42.4%
9,Cc1c(C)c2c(OCC(=O)N[C@@H](Cc3ccccc3)C(=O)O)cc3c(c2oc1=O)CCC(C)(C)O3,inactive: -11.4%
10,O=[N+]([O-])c1ccc(Oc2ccc(OCc3ccccc3)cc2)nc1,active: -80.4%
11,O=C(CCC1N=C2c3ccccc3N=C(SCc3ccccc3Cl)N2C1=O)NCc1ccco1 (stereo not given),inconclusive: -34.6%
12,Cc1ccc(NC(=S)Nc2ccc3cn[nH]c3c2)c(C)c1,inconclusive: -41.5%
13,CC(C(=O)Nc1ccc(Cl)cc1)N(C)Cc1cccs1 (stereo not given),inconclusive: -47.9%
14,Cc1ccc(Cn2ccc(=O)c(OCc3ccccc3)c2C)cc1,inactive: 16.4%
15,CN1CCN(c2ccc(S(=O)(=O)N3CCOCC3)cc2NC(=O)COc2ccc(C#N)cc2)CC1,inconclusive: -33.1%
16,O=c1c2ccccc2nc2c3ccccc3c(NCc3cccnc3)nn12,inactive: -4%
17,COc1ccc(CNC(=O)CN(C(=O)CCC(=O)Nc2nccs2)c2cccc(C)c2)cc1,inactive: 16.8%
18,CCC(=O)Nc1nc2ccc(NC(=O)c3cc(OC)c(OC)c(OC)c3)cc2s1,active: -52.5%
19,CCN(CC)CCNC(=O)c1cc(Nc2ccc(OC)c(OC)c2)nc2ccccc12,active: -58%
20,COc1ccc(-c2cc(=O)[nH][nH]2)cc1,inactive: -8.49%
21,COc1ccc(C(=O)Nc2scc(-c3ccc(Cl)cc3Cl)c2C(N)=O)cc1,inconclusive: -32.4%
22,COc1ccc(N2CC(C(=O)N(C)CC(=O)Nc3ccc(Cl)c(C(F)(F)F)c3)CC2=O)c(OC)c1 (stereo not given),inconclusive: -38.9%
23,C[C@@H]1CN([C@@H](C)CO)C(=O)CCCn2nncc2CO[C@@H]1CN(C)S(=O)(=O)c1ccc2ccccc2c1,inconclusive: -31.1%
24,COc1ccc(C2(c3ccc(OC)cc3)NC(=O)N(CC(=O)N(C)C3CCC(C)CC3)C2=O)cc1 (stereo not given),active: -56%
25,Cn1ccnc1C(O)c1cc(C(C)(C)C)c(O)c(C(C)(C)C)c1 (stereo not given),active: -92.9%
26,COC(=O)c1cc(Nc2cc(C)c3ccc(O)cc3n2)cc(C(=O)OC)c1,active: -65.3%
27,Cc1ccc(C(C(=O)NCC2CCCO2)N(C(=O)c2snc(C(N)=O)c2N)c2ccccc2F)o1 (stereo not given),inconclusive: -39.8%
